What is called koff is the rate constant with which the complex falls apart. Read a high koff as fast dissociation. A word on the kon: it is a measure of how fast the partners come together. High values mean fast association, low ones slow association. A word on the Kd: it is the equilibrium constant for the complex coming apart.

The record followed here is US20260272979A1 (CHINEO MEDICAL TECHNOLOGY, published 2026).

For experiment [1], the target named is T1, PD-L2 fuse-expressed with an Fc derived from human IgG1 (human, UniProt Q9BQ51 20-219, limits assumed).
T1 construct: Bought reagent; also called hPD-L2-Fc; not shown: Fc of human IgG1
T1 sequence (looked up): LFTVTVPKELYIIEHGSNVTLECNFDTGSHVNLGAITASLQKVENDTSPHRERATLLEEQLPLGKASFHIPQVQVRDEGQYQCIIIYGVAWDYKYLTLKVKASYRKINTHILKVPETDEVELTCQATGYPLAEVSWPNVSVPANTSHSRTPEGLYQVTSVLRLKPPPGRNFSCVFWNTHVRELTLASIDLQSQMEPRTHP
Description: SPR Biacore T200; PD1-RFc mobile phase. (In general: In SPR one partner is held on a chip, and binding of the other changes the refractive index at the surface.)

The target in experiment [2] is T2, PD-L1 fuse-expressed with an Fc derived from human IgG1 (human, UniProt Q9NZQ7 part only).
T2 construct: Bought reagent; also called PD-L1-Fc; hPD-L1-Fc; not shown: Fc of human IgG1
Description: SPR Biacore T200; PD1-RFc mobile phase.

For experiment [3], the target named is T1, PD-L2 fuse-expressed with an Fc derived …. Description: SPR Biacore T200.
The target of experiment [4] is T2, PD-L1 fuse-expressed with an Fc derived …. Description: SPR Biacore T200.

T2 sequence (Q9NZQ7 19-239 limits assumed): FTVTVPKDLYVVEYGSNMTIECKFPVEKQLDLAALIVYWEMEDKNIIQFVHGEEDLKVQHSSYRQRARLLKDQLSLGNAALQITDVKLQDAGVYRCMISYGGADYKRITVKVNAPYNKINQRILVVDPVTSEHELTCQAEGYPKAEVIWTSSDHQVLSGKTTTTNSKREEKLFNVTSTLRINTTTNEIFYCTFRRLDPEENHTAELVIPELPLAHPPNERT

B1: Seq No. 1-RFc (wild-type PD-1 fused to rabbit IgG Fc) (Fc fusion)
chain: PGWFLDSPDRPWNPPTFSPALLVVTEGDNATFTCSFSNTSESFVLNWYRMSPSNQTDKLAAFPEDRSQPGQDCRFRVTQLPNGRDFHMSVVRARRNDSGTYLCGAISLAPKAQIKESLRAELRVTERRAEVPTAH
notes: Amplified with the same primers (P32-For/P32-Rev) as the 155-residue variants; also called PD1-RFc; not shown: rabbit IgG Fc (RFc) of vector pcDNA3.4-RFc
With B1, the koff in experiment [1] came to 0.00351 s⁻¹; in experiment [2], 0.0163 s⁻¹. Also, the kon in experiment [1] amounted to 4.07e+06 M⁻¹ s⁻¹; in experiment [2], 1840 M⁻¹ s⁻¹. The Kd in experiment [3] amounted to 0.000862 µM; in experiment [4], 8.87 µM.
